In PubChem BioAssay AID2107 (National Center for Advancing Translational Sciences (NCATS), 2009):
The campaign covered roughly 240,000 compounds. About 20 (0.008%) were called active. This list was built around the results that the source calls inconclusive (neither active nor inactive); the mix of calls is not that of the screen. The call rests on the fitted dose curve; in most records, active means well fitted inhibition curve with a large enough effect; inconclusive means small, poorly fitted or top-dose-only effect, or effect the other way; inactive means flat fitted curve, though single readings scatter. No potency is given beside an inconclusive call; the fits are too rough.
Potency means the concentration at half of the fitted maximal effect; tags describe the fitted curve by direction and shape.
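Wherever activity change, negative = inhibition is given: 0% = enzyme with vehicle and -100% = no enzyme basal signal.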

What follows are molecules tested against Alpha-galactosidase A (Homo sapiens) (UniProt P06280) (assay: qHTS Assay for Inhibitors and Activators of Human alpha-Galactosidase From Spleen Homogenate). Details: 4MU-alpha-Gal fluorescence, 40 min; activity change, negative = inhibition: at 80 µM (top of the series).
Sequence of UniProt P06280 (P06280 whole entry, looked up): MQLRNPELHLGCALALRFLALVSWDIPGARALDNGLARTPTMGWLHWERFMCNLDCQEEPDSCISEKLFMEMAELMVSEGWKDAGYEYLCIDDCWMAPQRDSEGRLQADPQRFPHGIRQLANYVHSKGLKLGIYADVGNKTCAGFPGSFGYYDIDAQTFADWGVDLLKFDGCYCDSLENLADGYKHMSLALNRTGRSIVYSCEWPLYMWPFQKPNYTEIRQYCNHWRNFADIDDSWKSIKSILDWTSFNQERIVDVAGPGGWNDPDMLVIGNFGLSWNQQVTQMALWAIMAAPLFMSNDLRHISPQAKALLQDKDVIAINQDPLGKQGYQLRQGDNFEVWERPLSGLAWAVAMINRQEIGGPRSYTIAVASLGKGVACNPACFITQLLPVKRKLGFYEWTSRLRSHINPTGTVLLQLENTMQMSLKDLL
Text: NIH Chemical Genomics Center [NCGC] NIH Molecular Libraries Probe Production Centers Network [MLPCN] MLPCN Grant: R03 MH084842-01 Assay Submitter (PI): Wei Zheng NCGC Assay Overview: Alpha-galactosidase is a homodimeric glycoprotein that hydrolyzes the terminal alpha-galactosyl moieties from glycolipids and glycoproteins. Deficiency of this enzyme results in Fabry Disease with progressive accumulation of globotriaosylceramide and other glycosphingolipids in vascular endothelial cells that causes renal failure, myocardial infarction and stroke, and premature death in patients. It has been reported that the improper folding and trafficking of alpha-galactosidase resulting from genetic mutations may account for a significant number of Fabry patients. […] We optimized this alpha-galactosidase assay in 1536-well plate format for identification of novel small molecule inhibitors or activators with structures other than the sugar analogs in order to develop new pharmacological chaperones. In particular, this assay is directed towards discovering compounds active in more natural setting, tissue homogenate, that may have been missed by screens of the purified enzyme under more stringent conditions.
NCGC Assay Protocol Summary: This is a fluorogenic enzyme assay with 4-methylumbelliferyl-alpha-D-galactopyranoside as the substrate and human spleen homogenate containing alpha-galactosidase as the enzyme preparation. Upon hydrolysis of this fluorogenic substrate, the resulting product, 4-methylumbelliferone (which excites at 365 nm and emits at 440 nm) can be detected by a fluorescence plate reader. Data were normalized to the controls for basal activity (without enzyme) and 100% activity (with enzyme). The AC50 values were determined from concentration-response data modeled with the standard Hill equation. Assay buffer: 50 mM citric acid (titrated with potassium phosphate to pH 5.0), 0.01% Tween-20 (pH 5.0 is an optimal condition for this enzyme assay) 1536-well assay protocol for the alpha-galactosidase from human spleen homogenate: (1) Add 2 ul/well spleen homogenate (1 ug) (2) Add 23 nL compounds in DMSO solution. The final titration was 0.5 nM to 58 uM. (3) Add 2 ul of substrate (1 mM final) (4) Incubate at 37C for 40 min (5) Add 2 ul stop solution (1M NaOH and 1M Glycine mixture, pH 10) (6) Detect the assay plate in a ViewLux plate reader (PerkinElmer) with Ex=365 nm and Em=440nm. Keywords: Alpha-galactosidase, Fabry Disease, pharmacological chaperone, chaperone therapy, high throughput screening, alpha- galactosidase inhibitor, MLSMR, MLSCN, NIH Roadmap, qHTS and NCGC
In the case of `COC(=O)COc1ccc(S(=O)(=O)NC2CCCCCC2)cc1`, the Potency is reported as inconclusive [activator, single point].
With `CCOC(=O)N1CCC(=NNC(=O)COc2cccc(C)c2)CC1` the Potency was inconclusive [inhibitor, partial curve].
For `CC1CCCN(CCCCOc2cccc(Br)c2)C1` (centres undefined), the “activity change, negative = inhibition” value was inactive: -0.425%.
With `CCn1cc(-c2ccnc3cc(C(=O)O)nn23)c(C)n1` the Potency was inconclusive [activator, single point].
`COCCn1cc(C(=O)N2CCC(C)CC2)c2c3ccccc3n(C)c2c1=O` was tested, and the Potency was inconclusive [activator, single point].
`COc1ccc(-c2cc3nc(-c4ccccc4)cc(N4CCCC(O)C4)n3n2)cc1` (centres undefined) was tested, and the Potency was inconclusive [activator, single point].
With `COc1cc2cc(C)c3nnc(SCC(=O)Nc4cc(C)on4)n3c2cc1OC` the Potency was inconclusive [activator, single point].
With `COc1ccc(/C=C(\C#N)C(=O)NCC2CCCO2)cc1OC` (centres undefined) the “activity change, negative = inhibition” value was inactive: 1.35%.
In the case of `COCCn1c(=O)[nH]c2cc(C(=O)NCC3CCCO3)ccc2c1=O` (centres undefined), the Potency is reported as inconclusive [activator, partial curve].
`C=CCOC(=O)C(=O)/C=C/c1coc2ccccc2c1=O` was tested, and the Potency was inconclusive [activator, single point].
For `O=C(Nc1ccc(Cl)c(Cl)c1)OCc1cncs1`, the “activity change, negative = inhibition” value was inactive: 12%.
In the case of `CCc1cc2c(CN3CCN(CC)CC3)cc(=O)oc2cc1O`, the Potency is reported as inconclusive [activator, partial curve].
`COC(=O)C1=C(C)Nc2ncnn2C1c1ccc(OCc2ccccc2)cc1` (centres undefined) was tested, and the Potency was inconclusive [activator, single point].
In the case of `Cc1cc(=O)oc2cc(NS(=O)(=O)c3ccc(F)cc3)ccc12`, the Potency is reported as inconclusive [activator, partial curve].
`Cc1ccc(-c2cc(C(=O)O)c3cc(Br)ccc3n2)o1` was tested, and the Potency was inconclusive [activator, single point].
`Cc1cc(-c2nc3ncccc3o2)ccc1NC(=S)NC(=O)c1ccco1` was tested, and the Potency was inconclusive [activator, single point].
For `CCOC(=O)c1cnc2cc3c(cn2c1=O)CCCC3`, the Potency was inconclusive [activator, partial curve].
With `N#CCCn1nnc2ccccc21` the Potency was inconclusive [activator, single point].
In the case of `C#CCNc1nc(CC)nc2c1nnn2Cc1ccccc1F`, the “activity change, negative = inhibition” value is reported as inactive: 2.72%.
For `Cc1cc(C)c2c(n1)nn1c(NCCOCCO)cc(C)nc21`, the Potency was inconclusive [activator, partial curve].
For `N#Cc1ccc(CN2CC3(CCN(C(=O)c4cccc(F)c4)CC3)C2)cc1`, the Potency was inconclusive [inhibitor, partial curve].
With `COC(=O)C1=CN(CC2CCCO2)C=C(C(=O)OC)C1c1ccccc1C(F)(F)F` (centres undefined) the Potency was inconclusive [activator, full curve].
`CCN1C(=O)/C(=C\c2cn(-c3ccccc3)nc2-c2cccnc2)SC1=S` was tested, and the Potency was inconclusive [activator, single point].
In the case of `COc1ccc(OCC(=O)Nc2ccc(S(=O)(=O)Nc3cc(C)nc(C)n3)cc2)cc1`, the Potency is reported as inconclusive [inhibitor, single point].
`CCn1c(/C=C/c2ccccc2)nc2ccccc21` was tested, and the Potency was inconclusive [activator, single point].
With `C=CCSC1=N/C(=C\c2ccc3c(c2)OCO3)C(=O)S1` the Potency was inconclusive [activator, single point].
For `C[C@H]1CCC[C@@]2(C)CCCC[C@]12O`, the “activity change, negative = inhibition” value was inactive: 2.2%.
For `O=C(CN1CCCCCC1)Nc1ccc(F)c(F)c1`, the Potency was inconclusive [inhibitor, single point].
In the case of `COc1ccc(CCn2c(N)c(C(=O)NCc3ccco3)c3nc4ccccc4nc32)cc1`, the Potency is reported as inconclusive [activator, single point].
With `Cc1ccc(OCC(=O)N2CCN(C(=O)c3ccncc3)CC2)cc1` the “activity change, negative = inhibition” value was inactive: 1.38%.
For `COc1ccc(C2C3=C(CC(C)(C)CC3=O)Nc3nc(C)nn32)cc1OC` (centres undefined), the Potency was inconclusive [activator, partial curve].
For `Cc1ccc2[nH]c3c(c2c1)CN(C(=O)CN1CCN(c2cccc(C)c2C)CC1)CC3`, the Potency was inconclusive [inhibitor, partial curve, poor fit].
For `CCC(=O)N(CC(=O)Nc1sc(C)c(C)c1C(N)=O)C1CCCCC1`, the “activity change, negative = inhibition” value was inactive: 3.79%.
`COc1cccc(CC2(CO)CCCN(Cc3ccc(CN4CCCCC4)s3)C2)c1` (centres undefined) was tested, and the “activity change, negative = inhibition” value was inactive: -0.744%.
In the case of `N#Cc1nc(-c2cccs2)oc1NCCCN1CCOCC1`, the Potency is reported as inconclusive [activator, single point].
`CCOC(=O)c1cc2c(=O)n3ccccc3nc2n(CCOC)c1=NC(=O)c1ccncc1` was tested, and the Potency was inconclusive [activator, partial curve].
With `CN1CCN(c2nc(C(N)=O)cc(-c3ccccc3)n2)CC1` the Potency was inconclusive [inhibitor, single point].
In the case of `CCOC(=O)c1c(N)n(CCOC(=O)c2cccs2)c2nc3ccccc3nc12`, the Potency is reported as inconclusive [activator, partial curve].
For `Cc1cc(=O)[nH]c2cc(O)ccc12`, the Potency was inconclusive [activator, partial curve].
For `O=C(CN1CCN(S(=O)(=O)c2ccccc2)CC1)Nc1ccc(N2CCOCC2)cc1`, the Potency was inconclusive [inhibitor, single point].
In the case of `C=CCN1C(c2ccccc2)=CS/C1=C(\C#N)c1nnc2n1CCCCC2`, the “activity change, negative = inhibition” value is reported as inactive: 2.07%.
With `CCOC(=O)CC1C(=O)NCCN1C(=O)c1cc2c(=O)n3ccccc3nc2s1` (centres undefined) the Potency was inconclusive [activator, partial curve].
With `O=C(Nc1cc(Cl)cc(Cl)c1)c1coc(=O)c(Br)c1` the Potency was inconclusive [activator, full curve, poor fit].
With `Cc1cccn2c(=O)c(/C=C(\C#N)C(=O)NCc3ccccc3)c(N3CCC(C(N)=O)CC3)nc12` the Potency was inconclusive [activator, partial curve].
